# Data: PubChem BioAssay AID2546 (National Center for Advancing Translational Sciences (NCATS), 2010)
# Among all 310,000 compounds or so, about 11,000 (3.5%) were called active. This list was built around the results that the source calls inconclusive (neither active nor inactive); the mix of calls is not that of the screen. Calls follow the shape of the dose curve; as a rule, active = well fitted inhibition curve with a large enough effect; inconclusive = small, poorly fitted or top-dose-only effect, or effect the other way; inactive = flat fitted curve, though single readings scatter. No potency is given beside an inconclusive call; the fits are too rough.
# Assay: VP16 counterscreen qHTS for inhibitors of ROR gamma transcriptional activity;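 also: Gal4-VP16 expression switched on by copper sulfate through the metallothionein promoter; nearly all actives have a fitted effect of over 50% in size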
# Settings: Drosophila S2 Gal4-VP16 UAS-luciferase, luminescence, 20 h; activity, negative = inhibition: at 53.6 µM (top of the series)
# % is scaled to controls: 0 for no effect and ±100 for the full control effect; potency is read from the fitted curve at half-maximal effect; tags tell the direction and shape of the fitted curve.
SMILES,Potency,"activity, negative = inhibition"
CCCCc1cc(=O)oc2cc(C)cc(OC(C)C(=O)NCc3ccncc3)c12 (stereo unspecified),inactive,–
CCCCCCCCCCS(=O)(=O)N/N=C/c1ccc(O)cc1,"inconclusive [inhibitor, single point]",–
O=C(c1ccc(Cn2cc([N+](=O)[O-])cn2)o1)N1N=C(C(F)F)CC1(O)C(F)F (stereo unspecified),inactive,–
O=C(NNC(=S)NC1CCCCC1)c1ccc2c(c1)OCO2,"inconclusive [inhibitor, single point]",–
CC1CCCCC1NC(=O)CCC(=O)N1CCOc2ccc(Cl)cc21 (stereo unspecified),inactive,–
COc1ncc2nc(-c3cn(C)c4ccccc34)c(=O)n(Cc3ccc(F)cc3)c2n1,inactive,–
Cn1c(=O)c2c(nc(SCC(=O)NCC3CCCO3)n2Cc2ccc(F)cc2)n(C)c1=O (stereo unspecified),inactive,–
CCOC(=O)c1ccc(CN(Cc2ccc(C)cc2)S(=O)(=O)c2cccc([N+](=O)[O-])c2)cc1,"inconclusive [inhibitor, single point]",–
Cc1cc(C(=O)CSc2nc3ccc(Cl)cc3[nH]2)c(C)n1CC1CCCO1 (stereo unspecified),"inconclusive [inhibitor, single point]",–
COc1ccc(N(C(=O)c2csnn2)C(C(=O)NC2CCCC2)c2cccs2)cc1 (stereo unspecified),inactive,–
Cc1cccc(Sc2c([N+](=O)[O-])ncn2C)c1,"inconclusive [inhibitor, partial curve]",–
CCN(CC)c1ccc(N=Cc2ccc([N+](=O)[O-])o2)cc1,active: 22.4 µM,–
COc1cccc(OCc2cc(C(=O)N3CCC(C(O)C(C)C)CC3)no2)c1 (stereo unspecified),"inconclusive [inhibitor, single point]",–
CCOc1ccc(OCc2cccc(C(=O)N3CCCC3)c2)cc1,inactive,–
O=C(/C=C/c1ccco1)NCC(=O)N/N=C/c1ccc([N+](=O)[O-])cc1,"inconclusive [activator, partial curve]",–
CC1(C)CCC2(C(=O)O)CC[C@]3(C)C(=CCC4[C@]5(C)CCC(O)C(C)(C)C5C(O)C[C@]43C)C2C1 (stereo partly specified),inactive,–
Cn1c(=O)c2c(ncn2CC(=O)N/N=C/C=C/c2ccco2)n(C)c1=O,inactive,–
COc1ccc(C2/C=C\CN(C(=O)NC34CC5CC(CC(C5)C3)C4)CC(=O)N2Cc2ccc(F)cc2)cc1 (stereo unspecified),inactive,–
CCc1cc2c(=O)n(-c3ccc(C)cc3)cnc2s1,"inconclusive [inhibitor, partial curve]",–
Cc1cc(=O)[nH]c(SCCCOc2ccccc2Cl)n1,"inconclusive [inhibitor, single point]",–
CSc1ccc(/C=N/Nc2ccc(Cl)c(C(=O)O)c2)cc1,"inconclusive [inhibitor, single point]",–
COc1cc(NC(=O)c2ccco2)c(C(=O)O)cc1OC,inactive,–
COc1ccc(CNC(=O)/C(C#N)=C2\N=C(NC(=O)c3cccs3)c3ccccc32)cc1,inactive,–
COc1cccc2c1CCc1c-2nc2ccccc2c1C(=O)O,active: 10 µM,–
Cc1cccc(CN2CCC(C(=O)Nc3cccc(-c4cccc(F)c4)c3)CC2)n1,"inconclusive [inhibitor, single point]",–
CCOC(=O)Cn1cnc2c(nnn2-c2ccc(F)cc2)c1=O,inactive,–

SMILES,Potency,"activity, negative = inhibition"
CC(C)(C)c1ccc(C(=O)Nc2cccc(C(=O)N3CCOCC3)c2)cc1,"inconclusive [inhibitor, single point]",–
O=C(O)/C=C/C(=O)NNC(=O)c1ccc(Br)cc1,"inconclusive [inhibitor, single point]",–
C1COCCNCCOCCOCCN1,inactive,–
O=Cc1cn(CC(O)Cn2cc(C=O)c3ccccc32)c2ccccc12,inactive,–
CC1Cn2c(nnc2-c2cc3ccccc3cc2O)S1 (stereo unspecified),"inconclusive [inhibitor, partial curve, poor fit]",–
Cc1cccc2nc(COc3ccc4ccccc4c3Br)cn12,"inconclusive [inhibitor, single point]",–
COC(=O)c1c(NC(=O)c2ccc(C)o2)sc2c1CCCCC2,inactive,–
COc1ccc(S(=O)(=O)N2CCCC2c2cccs2)cc1 (stereo unspecified),inactive,–
CC(C)(C)c1ccc(OCc2nc(-c3ccccn3)no2)c(Br)c1,"inconclusive [inhibitor, single point]",–
Cc1cccc(-n2ncc(C#N)c2N)c1,"inconclusive [inhibitor, single point]",–
CC(C)Nc1nc(-c2ccccn2)nc(-c2ccccc2)c1C#N,"inconclusive [inhibitor, partial curve]",–
CN(CC1CCCO1)S(=O)(=O)c1ccc(C(=O)Nc2ccc([N+](=O)[O-])cc2)cc1 (stereo unspecified),"inconclusive [inhibitor, single point]",–
CCCN1CCC(NCc2cn(C)nc2-c2ccc(Oc3ccccc3)cc2)CC1,"inconclusive [inhibitor, single point]",–
COc1cccc(N2CCN(C(=S)Nc3cc(C)cc(C)c3)CC2)c1,inactive,–
COc1ccc(/C=N/NC(=O)COc2ccc(Cl)cc2Cl)cc1Cn1nc(C)cc1C,"inconclusive [inhibitor, single point]",–
Cn1c(SCC(=O)Nc2ccccc2F)nc2c(c1=O)SCC2,"inconclusive [inhibitor, single point]",–
Nc1cccc(-c2cn3cccnc3n2)c1,inactive,–
CCc1ccc(NC(=S)N2CCN(C)CC2)cc1,"inconclusive [inhibitor, single point]",–
CCOC(=O)C1=C(C)N(C)C(=S)NC1c1ccccc1 (stereo unspecified),active: 8.91 µM,–
c1cn(-c2ccnc(-c3ccc4c(c3)OCO4)n2)cn1,inactive,–
Cc1ccc(NC(=O)COc2ccccc2[N+](=O)[O-])nc1,"inconclusive [inhibitor, single point]",–
Cc1cc(C)cc(NC(=O)c2cc(S(=O)(=O)NCc3ccco3)ccc2F)c1,active: 10 µM,–
CCOC(=O)CN(C(=O)c1ccccc1[N+](=O)[O-])C(C)(C)C,inactive,–
CCOc1ccc(C(=O)c2nc3c(n2O)CCCCC3)cc1,"inconclusive [inhibitor, single point]",–
OCCNc1nc(NCCC2=CCCCC2)nc(N2CCOCC2)n1,"inconclusive [inhibitor, single point]",–
COC(=O)C1=C(C)N(Cc2ccccc2)[C@]23O[C@](C(=O)OC)(C(=O)N2C1c1ccccc1)C(C(=O)OC)=C3C(=O)OC (stereo partly specified),–,inactive: -5.08% [at 10 µM]

SMILES,Potency,"activity, negative = inhibition"
N/C(COc1ccc(Cl)cc1Cl)=N\NS(=O)(=O)c1ccccc1,"inconclusive [inhibitor, single point]",–
C/C(=N\NC(=O)c1nnn(-c2nonc2N)c1-c1ccc2c(c1)OCO2)c1ccc(C)cc1,inactive,–
O=S(=O)(Cc1ccc(Cl)cc1)N1CCN(Cc2ccc3c(c2)OCO3)CC1,inactive,–
CCOc1ccc2nc(NC(=O)c3ccc(OCC4CCCO4)cc3)sc2c1 (stereo unspecified),"inconclusive [inhibitor, single point]",–
Oc1c(Cl)cc(Cl)cc1C=Nc1ccccc1N1CCCC1,"inconclusive [inhibitor, single point]",–
CCCCSc1nnc(-c2ccccc2)c2ccccc12,active: 12.6 µM,–
O=C1OCCN1C(=O)[C@H]1[C@H](c2ccc(F)cc2)C(c2ccc(F)cc2)=NN1c1ccc(Br)cc1,inactive,–
COc1ccc(N2C(=O)CC(Sc3nnc(-c4ccccc4)o3)C2=O)cc1 (stereo unspecified),"inconclusive [inhibitor, single point]",–
O=C(N/N=C/c1ccc([N+](=O)[O-])o1)c1ccncc1,"inconclusive [inhibitor, single point]",–
COc1cccc(CC(NC(C)=O)C(=O)NC2CCN(C(=O)C3CCCCC3)CC2)c1OC (stereo unspecified),inactive,–
CSc1c(CC(=O)Nc2ccc(F)cc2)n(Cc2ccccc2)c2ccccc12,"inconclusive [inhibitor, single point]",–
CCc1c(C)nc2cc(-c3cc(OC)cc(OC)c3)nn2c1N1CCCC1,active: 12.6 µM,–
Cc1ccsc1/C=N/Nc1cccc(C(=O)O)c1,"inconclusive [inhibitor, single point]",–
CC(C)NCC(O)Cn1c2c(c3ccccc31)CCc1c-2cnn1-c1ccccc1 (stereo unspecified),"inconclusive [inhibitor, single point]",–
O=C(CSc1ncn[nH]1)Nc1nc(-c2ccccc2)cs1,"inconclusive [inhibitor, single point]",–
CCCc1cc(C(N)=O)c(NC(=O)c2ccoc2C)s1,"inconclusive [inhibitor, single point]",–
O=c1c(Cl)c(Cl)cnn1Cc1ccc(F)cc1,"inconclusive [inhibitor, partial curve]",–
CCOc1ccc(Nc2nc(N)c3ccccc3n2)cc1,"inconclusive [inhibitor, partial curve, poor fit]",–
C=C(C(=O)c1ccccc1)C(C)CC(=O)c1ccccc1 (stereo unspecified),active: 17.8 µM,–
Cc1cccc(NC(=O)CSc2cccc3cccnc23)c1C,inactive,–
Cc1ccc(Nc2c(-c3ccco3)nc3nc(C)cc(C)n23)cc1,"inconclusive [activator, partial curve]",–
CCN(CC)c1c([N+](=O)[O-])c(=O)n(CC)c2ccccc12,inactive,–
Cc1ccc(-c2n[nH]c(=S)n2/N=C/c2ccc(C)s2)cc1,active: 7.08 µM,–
NC(=O)N/N=C/c1cn(-c2ccccc2)nc1-c1ccccc1,"inconclusive [inhibitor, single point]",–
